# Data: the supplement of paper PMC10037445
# Over roughly 2,900 compounds, “IRF Lucia reporter activity, fold change vs agonist alone” has its median near 0.9; the highest 2% begin near 2.8. The list shows a part of the results.
# What was measured:
# [1] = tested on: RAW-Dual; test: IRF Lucia reporter activity, fold change vs agonist alone; higher = enhanced IRF activity; settings: library stock concentration (final ~1000-fold dilution): 10 mM, agonist: MPLA (TLR4) […]
# Outline: (§1)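 Library stock was pin-tooled at 50 nL into 384-well plates of RAW-Dual macrophages (50,000 cells/well, DMEM), followed 1 h later by a PRR agonist, and the cells were kept at 37 °C, 5% CO2. Supernatant collected after 20 hours was read for IRF by QuantiLuc luminescence and for NF-κB by QuantiBlue absorbance at 620 nm. Reporter activity is fold change over agonist-alone wells, and a well counted as cytotoxic when its IncuCyte confluency was below 70% of agonist controls in both mask sets.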
# [2] = tested on: RAW-Dual; test: IRF Lucia reporter activity, fold change vs agonist alone; cytotoxicity flag (confluency mask): not cytotoxic; higher = enhanced IRF activity
# Outline: as §1
# [3] = tested on: RAW-Dual; test: IRF Lucia reporter activity, fold change vs agonist alone; cytotoxicity flag (confluency mask): cytotoxic (confluency <70% of control); higher = enhanced IRF activity
# Outline: as §1
# [4] = cytotoxicity flag (confluency mask): not cytotoxic
# [5] = agonist: 3'3'-cGAMP (STING) 10 ug/mL
# [6] = cytotoxicity flag (confluency mask): cytotoxic (confluency <70% of control)
structure (smiles),measurement,setting,value
Cc1ccc(-c2ccc(C)cn2)nc1,IRF Lucia reporter activity,[1]; [4],1.1
Cc1ccc(-c2ccc(C)cn2)nc1 (library stock concentration (final ~1000-fold dilution): 10 mM),IRF Lucia reporter activity,[2]; [5],0.792
same,IRF Lucia reporter activity,[2]; agonist: LPS (TLR4) 0.1 ug/mL,0.907
CC(NCCC(c1ccccc1)c1ccccc1)c1ccccc1.Cl (stereo not given),IRF Lucia reporter activity,[1]; [6],1.34
CC(NCCC(c1ccccc1)c1ccccc1)c1ccccc1.Cl (stereo not given) (library stock concentration (final ~1000-fold dilution): 10 mM),IRF Lucia reporter activity,[3]; [5],0.498
same,IRF Lucia reporter activity,[3]; agonist: LPS (TLR4) 0.1 ug/mL,1.49
CCCCCOc1ccc(-c2ccc(-c3ccc(C(=O)NC4CC(O)C(O)NC(=O)C5C(O)C(C)CN5C(=O)C(C(C)O)NC(=O)C(C(O)C(O)c5ccc(O)cc5)NC(=O)C5CC(O)CN5C(=O)C(C(C)O)NC4=O)cc3)cc2)cc1 (stereo not given) (library stock concentration (final ~1000-fold dilution): 10 mM),IRF Lucia reporter activity,[3]; [5],0.449
same,IRF Lucia reporter activity,[3]; agonist: LPS (TLR4) 0.1 ug/mL,1.32
CCCCCOc1ccc(-c2ccc(-c3ccc(C(=O)NC4CC(O)C(O)NC(=O)C5C(O)C(C)CN5C(=O)C(C(C)O)NC(=O)C(C(O)C(O)c5ccc(O)cc5)NC(=O)C5CC(O)CN5C(=O)C(C(C)O)NC4=O)cc3)cc2)cc1 (stereo not given),IRF Lucia reporter activity,[1]; [6],0.732
COc1cc2ccc(=O)oc2cc1O (library stock concentration (final ~1000-fold dilution): 10 mM),IRF Lucia reporter activity,[2]; [5],0.959
same,IRF Lucia reporter activity,[2]; agonist: LPS (TLR4) 0.1 ug/mL,1.17
COc1cc2ccc(=O)oc2cc1O,IRF Lucia reporter activity,[1]; [4],0.923
CCNc1nc(Nc2cc(F)c(C(=O)N3CCOCC3)cc2OC)ncc1C(F)(F)F (library stock concentration (final ~1000-fold dilution): 10 mM),IRF Lucia reporter activity,[2]; [5],1.21
same,IRF Lucia reporter activity,[2]; agonist: LPS (TLR4) 0.1 ug/mL,0.644
CCNc1nc(Nc2cc(F)c(C(=O)N3CCOCC3)cc2OC)ncc1C(F)(F)F,IRF Lucia reporter activity,[1]; [4],0.824
CCCCCCOc1cc(C)c(O)c(C)c1C (library stock concentration (final ~1000-fold dilution): 10 mM),IRF Lucia reporter activity,[3]; [5],0.0152
same,IRF Lucia reporter activity,[3]; agonist: LPS (TLR4) 0.1 ug/mL,0.0158
FC(F)(F)Oc1ccc(-c2ccc3nnc(C(F)(F)F)n3c2)cc1,IRF Lucia reporter activity,[1]; [4],1.07
FC(F)(F)Oc1ccc(-c2ccc3nnc(C(F)(F)F)n3c2)cc1 (library stock concentration (final ~1000-fold dilution): 10 mM),IRF Lucia reporter activity,[2]; [5],0.973
same,IRF Lucia reporter activity,[2]; agonist: LPS (TLR4) 0.1 ug/mL,0.723
CC1CCN(C(=O)CC#N)CC1N(C)c1ncnc2[nH]ccc12 (stereo not given),IRF Lucia reporter activity,[1]; [4],0.532
CC1CCN(C(=O)CC#N)CC1N(C)c1ncnc2[nH]ccc12 (stereo not given) (library stock concentration (final ~1000-fold dilution): 10 mM),IRF Lucia reporter activity,[2]; [5],0.238
same,IRF Lucia reporter activity,[2]; agonist: LPS (TLR4) 0.1 ug/mL,0.409
O=C(O)CCCC[C@@H]1CCSS1 (library stock concentration (final ~1000-fold dilution): 10 mM),IRF Lucia reporter activity,[2]; [5],0.945
same,IRF Lucia reporter activity,[2]; agonist: LPS (TLR4) 0.1 ug/mL,1.12
